This passage reports self-cleavage results from the RNAGym collection of RNA variant scans (doi:10.7554/elife.90254).

B1: LINE1-full (parent)
chain: UACGUAGGUGGUUUUCCCCUGAUAGUGCUAAGGGGGCCUGGAAGUUUGGACUGGGCAGAGCUCAACACAGCGUGGCAAAGUGGCUGUGGCUAGACUGCCUCUCUGGAUUCCUCGUCACUCAGCAGGGCAUCUCUGAGAGAAAUGCC

The source gives no read counts; variants with many changes may rest on few reads.

The data set covers variants of B1. The data set is described as follows: self-cleavage, relative activity (ratio to wild type); higher = more cleavage; in vitro, sequencing; the parent is a self-cleaving ribozyme.
Consider UAUGUAGGUGGUUUACCCCUGAUAGUGCUUAGGGGGCCUGGAAGUUUGGACUGGGCAGAGCUCAACACAGUGUGGCAAAGUGGCUGCGGCUAGACUGCCUCUCUGGAUUCCUCGUCACCCAGCAGGGCAUCUCUGAGAGAAAUGCC, for which the self-cleavage was 0.08. The result for UAUGUAGGUGGUUUUCCCCUGAUAGUGCUAAGGGGGCCUGGAAGUUUGGACUGGGCAGAGCCCAACACAGCGUGGCAAAGUGGCUGUGGCUAGACUGCCUCUCUGGAUUCCUCGUCACUCAGCAGGGCAUCUCUGGGGGAAAUGCC reads 0.15; that for UAUGUAGGUGGUUUUCCCCUGAUAGAGCUAAGGGGGCCUGGAAGUUUGGACUGGGCAGAGCUCAACACAGCGUGGCAAAGUGGCUGUGGCUAGACUGCCUCUCUGGAUUCCUCGUCGCUCAGCAGGGCAUCUCUGAGAGAAAUGCC, 0.77; that for UACAUAGGUGGUUUUCCCCUGAUAGUGCUAAGGGGGCCUGGAAGUUUGGACUGGGCAGAGCUCAACACAGCGUGGCAGAGUGGCUGUGGCUAGACUGCCUCUCUGGAUUCCUCGUCACUCAGCAGGGCAUCUCUGAGAGAAUUGCC, 0.84.

For UACAUAGGUAGUUUUCCCCUGAUAGUGCUAAGGGGGCCUGGGAGUUUGGACUGGGCAGAGCUCAACACAGCGUGGCAAAGUGGCUGUGGCUAGACUGCCUCUCAGGAUUCCUCGUCACUCAGCAGGGCAUCUCUGGGAGAAAUGCC, the self-cleavage is 0. The figure for UAUGUAGGUGGUUUUCCCCUGAUAGUGCUAAGGGGGCCCGGAAGUUUGGACAGGGCAGAGCUCAAUACAGCGUGGCAAGGUGGCUGUGGCUAGACUGCCUCUCUGGAUUCCUCGUCACUCAGCAGGGCAUCUCUGAGAGAAAUGCC is 0.22; for UACAUAGGUGGUUUUCCCCUGUUAGUGCUAAGGGGGCCUAGAAGUUUGGACUGGGCAGAGCUCAACACAGCGUGGCAAAGUGGCUGUGGCUAGACUGCCUCUCUGGGUUCCUCGUCACUCAGCAGGGCAUCUCUGGGAGAAAUGCC it is 1.09; for UACAUAGGUGGUUUUCCCCUGAUAGUGCUAAGGGGGCCUGGAAGUUUGGACUGGGCAGAGCUCAACACAGCGUGGCAAAGUGGCUGUGGCUAGACUGCCUCUCUGGAUUCCUCGUCACUCAGCAGGGUAUCCCUGAGAGAGAUGCC it is 0.91. The result for UACAUAGGUGGUUUUCCCCUGAUAGUGCUAGAGGGGCCUGGAAGCUUGGACUGGGCAGAGCUCAACACAGCGUGGCAAAGUGGCUGUGGCUAGACUGCCUCUCUGGAUUCCUCGUCACUCAGCAGGGCAUCUCUGAGAGAAAUGCC reads 0.63.

On to UAUGUAGGUGGUUUUCCCCUGAUAGUGCUAAGGGGGCCUGGAAGUUAGGACUGGGCAGAGCUCAACACAGCGUGGCAAAGUGGCUGUGGCUAGACUGCCUCUCUGGAUUCCUCGUCACUCGGCAGGGCAUCUCUGAGAGAAAUGCC, for which the self-cleavage was 1.11. The result for UACAUAGGUGGUUUUCCCCUGAUAGUGCUAAGGGGGCCUGGAAGUUUGGACUGGGCAGAGCUCAACACAGCGUGGCGAAGUGGCUGUGGCUAGACUGCCUCUCUGGAUUCCUCGUCACUCAGCAGGGCAUCUCUGAGAGAAGCGCC reads 1.25. As to UAUGUAGGUGGUUCUCCCCUGAUAGUGCUAAGGGGGCCUGGAAGUUUGGACUGGGCAGAGCUCAACACAGCGUGGCAAAGUGGCUGUGGCUAGACUGCCUCUCUGGAUUUCCCGUCACUCAGCAGGGCAUCUCUGAGAGGAAUGCC, the self-cleavage was determined as 1.33. As for UACAUAGGUGGUUUUCCCUUGAUAGUGCUAAGGGGGCCUGGAAGUUUGGACUGGGCAGAGCUCAACACAGCGUGGCAAAGUGGCUGAGGCUAGACUGCCUCUCUGGAUUCCUCGUCACUCAGCGGGGCAUCUCUGAGAGAAAUGCC, the self-cleavage came out at 0.06. The result for UAUGUAGGUGGUUUUCCCCUGAUAGUGCUAAGGGGGCCUGGAAGUUUGGACUGGGCAGAGCUCAACACAGCGUGGCAAAGUGGCUGUGGCUAGACUGCCUCUCUGGAUUCCCCGUCACCCAGCAGGGCAUCUCAGAGAGAAAUGCC reads 0.5; that for UACAUAGGUGGUUUUCCCCUGAUAGUGCUAAGGGGGCCUGGAAGUUUGGACUGGGCAGAGCUCAACAUAGCGUGGCAAAGUGGCUGUGGCUAGACUGCCUCUCUGGAUUCCUCGCCACUCAGCAGGGCACCUCUGAGAGAAAUGCC, 0.31; that for UAUGUAGGUGGUUUUCCCCCGAUAGUGCUAAGGGGGCCUGGAAGUUUGGACUGGGCAGAGCUCAACACAGCGUGGCAAAGUGGGUGUGGCUAGGCAGCCUCUCUGGAUUCCUCGUCACACAGCAGGGCAUCUCUGAGAGAAGUGCC, 0. The result for UACAUAGGUGGUUUUCCCCUGAUAGUGCUAAGGGGGCCUGGAGGUUUGGACUGGGCAGAGCUCAACACAGCGUGGCUAAGUGGCUGUGGCUAGACCGCCCCUCUGGAUUCCUCGUCACUCAGCAGGGCAUCUCUGAGAGAAAUGCC reads 0.17; that for UACAUAGGUGGUUUUCCCCUGAUAGUGCUGAGGGGGCCUGGAAGUUUGGACUGGGCAGAGCUCAACACAGCGUGGCAGAGUGGCUGUGGCUAGACUGCCUCUCUGGAUUCCUCGUCACUCAGCAGAGCAUCCCUGAGAGAAGUGCC, 1.06; that for UAUGUAGGUGGUUUUCCCCUGAUAGUGCUAAGGGGGCCUGGAAGUUUGGACUGGGCAGAGCUCAACACAGCGUGGCAAAGUGGCGGUGGCUAGACUGCCUCUCUGGAUUCCUCGUCACUCAGCAGGGCAUCUCUGAGAGAAGUGCC, 0.37. As to UACAUAGGUGGUUUUCCCCUGAUAGUGCUAAGGGGGCCUGGAAGUUUGGGCUGGGCAGAGCUCAACACAGCGUGGCAAAGUGGCUGUGGCUAGACCGCCUCUCUGGAUUCCUCGUCACUCAGCAGGGCAUCUCUGAGAGAAAUGCC, the self-cleavage was found to be 0.16.
